# Assay results: the supplement of paper PMC8728848
# The other results are listed elsewhere or left out.
# Key:
# Assay in all cases: glycan array binding signal (z-score within array); higher = stronger binding
# Settings in all cases: glycan notation: IUPAC condensed, linker removed
# [1] = molecular target: Neu5Ac9Ac(a2-3)Gal(b1-3)GlcNAc
# How it was run: (§1)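 Glycan array data came from 3228 arrays in the Consortium for Functional Glycomics database, and only arrays with an available protein sequence were kept. Glycan names were put into IUPAC-condensed notation, and columns mapping to the same glycan were averaged. The binding signal is a within-array Z-score, averaged across arrays of one protein sequence run at different concentrations or buffers and across linkers. A negative Z-score can be read as non-binding.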
# [2] = molecular target: Neu5Ac9Ac(a2-3)Gal(b1-4)GlcNAc
# How it was run: as §1
# [3] = molecular target: Neu5Ac9Ac(a2-6)Gal(b1-4)GlcNAc
# How it was run: as §1
# [4] = molecular target: Neu5Gc(a2-3)Gal(b1-3)GlcNAc
# How it was run: as §1
# [5] = molecular target: Neu5Gc(a2-3)Gal(b1-3)[Fuc(a1-4)]GlcNAc
# How it was run: as §1
# Neu5Gc(a2-3)Gal(b1-4)Glc = molecular target: Neu5Gc(a2-3)Gal(b1-4)Glc
# How it was run: as §1
# [6] = molecular target: Neu5Gc(a2-3)Gal(b1-4)GlcNAc
# How it was run: as §1
# [7] = molecular target: Neu5Gc(a2-3)Gal(b1-4)GlcNAc(b1-3)Gal(b1-4)GlcNAc(b1-2)Man(a1-3)[Neu5Gc(a2-3)Gal(b1-4)GlcNAc(b1-3)Gal(b1-4)GlcNAc(b1-2)Man(a1-6)]Man(b1-4)GlcNAc(b1-4)GlcNAc
# How it was run: as §1
# [8] = molecular target: Neu5Gc(a2-3)Gal(b1-4)[Fuc(a1-3)]GlcNAc
# How it was run: as §1
# [9] = molecular target: Neu5Gc(a2-6)Gal(b1-4)GlcNAc
# How it was run: as §1
# Neu5Gc(a2-6)GalNAc = molecular target: Neu5Gc(a2-6)GalNAc
# How it was run: as §1
# [10] = molecular target: Neu5Gc(a2-8)Neu5Ac(a2-3)Gal(b1-4)GlcNAc
# How it was run: as §1
# [11] = molecular target: Neu5Gc(a2-8)Neu5Gc(a2-3)Gal(b1-4)GlcNAc
# How it was run: as §1
# [12] = molecular target: Neu5Gc(a2-8)Neu5Gc(a2-3)Gal(b1-4)GlcNAc(b1-3)Gal(b1-4)GlcNAc
# How it was run: as §1
# [13] = molecular target: Neu5Gc(a2-8)Neu5Gc(a2-6)Gal(b1-4)GlcNAc
# How it was run: as §1
# [14] = molecular target: Neu5Gc(b2-6)Gal(b1-4)GlcNAc
# How it was run: as §1
binder,measurement,setting,value
Jacalin (Artocarpus integrifolia) (protein) MAYSSLLSLSVLALLFSISSADTRKWFLANGINQNPIGIIEAAVGVSEDLLNLNGMEAKNDEQSGISQTVIVGPWGAKVSTSSNGKAFDDGAFTGIREINLSYNKETAIGDFQVVYDLNGSPYVGQNHKSFITGFTPVKISLDFPSEYIMEVSGYTGNVSGYVVVRSLTFKTNKKTYGPYGVTSGTPFNLPIENGLIVGFKGSIGYWLDYFSMYLSL,glycan array binding signal (z-score),[1],-0.262
same,glycan array binding signal (z-score),[2],-0.223
same,glycan array binding signal (z-score),[3],-0.26
same,glycan array binding signal (z-score),[4],-0.267
same,glycan array binding signal (z-score),[5],-0.257
same,glycan array binding signal (z-score),Neu5Gc(a2-3)Gal(b1-4)Glc,-0.277
same,glycan array binding signal (z-score),[6],-0.274
same,glycan array binding signal (z-score),[7],-0.232
same,glycan array binding signal (z-score),[8],-0.286
same,glycan array binding signal (z-score),[9],-0.247
same,glycan array binding signal (z-score),Neu5Gc(a2-6)GalNAc,-0.263
same,glycan array binding signal (z-score),[10],-0.289
same,glycan array binding signal (z-score),[11],-0.268
same,glycan array binding signal (z-score),[12],-0.276
same,glycan array binding signal (z-score),[13],-0.274
same,glycan array binding signal (z-score),[14],-0.274
